Data as given in the supplement of paper PMC7826260.
This is one part of the list. One pool of 16,384 single-stranded DNAs met each Rep nickase domain in vitro for 1 h at 37 °C with 3 µM enzyme; only the middle of the 90-letter strands is printed. The score is log2 (uncut reads / reads without enzyme); more negative means more cut, near 0 not cut, and no call is made. Counts are relative to all reads; uncut strands gain when others are lost, and binding without cutting may add a little.

What follows are sequences tested on T1, Rep nickase domain of tomato golden mosaic virus (assay: uncleaved DNA left, log2 of reads against the no-enzyme library (log2 ratio); higher = less cleavage (more negative = more Rep cleavage of the k-mer); sequences stand for … in CTCGTCCG…ACCGGAGA).
T1 sequence (residues 1-124, tag not shown): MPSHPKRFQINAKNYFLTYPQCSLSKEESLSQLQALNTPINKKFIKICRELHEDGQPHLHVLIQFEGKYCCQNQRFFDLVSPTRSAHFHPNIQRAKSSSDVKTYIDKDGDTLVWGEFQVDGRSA
Method: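 A pool of 90-nt single-stranded DNAs with seven random bases just before the constant AC of the nick site (name = the seven bases) was cut by 3 µM recombinant His6-SUMO-tagged Rep nickase domain (300 nM DNA, 50 mM HEPES pH 8.0, 50 mM NaCl, 1 mM MnCl2, 1 h, 37 °C, three replicates). Uncut DNA was amplified and sequenced.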

Sequence | uncleaved DNA left (log2)
TGCTACA | -0.905
TCGTACT | -0.252
GCTCTTC | -0.0785
GGAGTCA | -0.000835
TCGGGAA | -0.0834
TTCAAGT | -0.0193
AAGACTA | 0.0456
TACCTCT | -0.071
CTTGCTT | -0.164
AGCCTGG | 0.0807
TAAACTG | 0.0708
CCTGACG | -0.214
CAACAAA | 0.257
CTTGATG | -0.0785
GCCGGGG | 0.117
ATCGGCC | 0.0115
CCGCCGG | 0.0904
GGGCGCT | -0.0364
AGTGACT | 0.0345
TGGAACG | -0.0279

Sequence | uncleaved DNA left (log2)
CAGCTAT | -0.0056
GTTAGCG | 0.0607
CCCACTG | -0.107
CTTGGTA | 0.0935
CCCCCGA | 0.111
CATTGTT | -0.751
CAGTTAC | -0.0892
AGTTAAC | 0.0272
TATTCCG | -0.112
CCGCCCC | -0.102
GGGGGCT | -0.00906
GGCGCGG | 0.116
TTCGACC | -0.0526
GCGAGTT | -0.121
AGATTGC | -0.0209
TTCTAAT | 0.0457
GGACCGT | -0.0336
AGCTACG | 0.108
TGTCCTG | -0.0314
TAGTTTA | -0.03
